The IC50 comes from the fitted curve, where viability falls to half of the control; fits outside the tested doses are given as limits. AUC sums up the same curve from the lowest dose to the 256-fold higher top dose: 1 means no effect, lower means more sensitive. For some of these results: An inferred top dose was calculated from the reported fits.
What was measured:
Experiment in all cases: Viability of human cancer cell lines after 72 h of drug (GDSC screen)
CCT018159 = compound: CCc1cc(-c2n[nH]c(C)c2-c2ccc3c(c2)OCCO3)c(O)cc1O [CCT018159]; settings: top dose 10 µM; top dose inferred
Description: (§1)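 Human cancer cell lines in 384-well plates, medium with 10% serum, drug for 72 h over a 256-fold dose range (nine 2-fold or five 4-fold steps up to the top dose). Adherent lines were fixed and stained with the nucleic acid dye Syto60, suspension lines read with resazurin; signal relative to control wells, capped at 0 and 100%. One two-parameter sigmoid per drug and line, fitted in a mixed model over all curves with the slope shared within a line.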

TG101348 = compound: Cc1cnc(Nc2ccc(OCCN3CCCC3)cc2)nc1Nc1cccc(S(=O)(=O)NC(C)(C)C)c1 [TG101348]; settings: top dose 10.24 µM
Description: as §1

Doxorubicin = compound: COc1cccc2c1C(=O)c1c(O)c3c(c(O)c1C2=O)C[C@@](O)(C(=O)CO)C[C@@H]3O[C@H]1C[C@H](N)[C@H](O)[C@H](C)O1 [Doxorubicin]; settings: top dose 1.024 µM
Description: as §1

Vismodegib = compound: CS(=O)(=O)c1ccc(C(=O)Nc2ccc(Cl)c(-c3ccccn3)c2)c(Cl)c1 [Vismodegib]; settings: top dose 10 µM; top dose inferred
Description: as §1

17-AAG = compound: C=CCNC1=C2C[C@@H](C)C[C@H](OC)[C@H](O)[C@@H](C)/C=C(\C)[C@H](OC(N)=O)[C@@H](OC)/C=C\C=C(/C)C(=O)NC(=CC1=O)C2=O [17-AAG]; settings: top dose 1 µM
Description: as §1

UNC1215 = compound: O=C(c1ccc(C(=O)N2CCC(N3CCCC3)CC2)c(Nc2ccccc2)c1)N1CCC(N2CCCC2)CC1 [UNC1215]; settings: top dose 1 µM; top dose inferred
Description: as §1

BMX-IN-1 (QL-XII-61) = compound: C=CC(=O)Nc1cc(-n2c(=O)ccc3cnc4ccc(-c5ccc(NS(C)(=O)=O)cc5)cc4c32)ccc1C [BMX-IN-1 (QL-XII-61)]; settings: top dose 10 µM; top dose inferred
Description: as §1

Dimethyloxalylglycine = compound: COC(=O)CNC(=O)C(=O)OC [Dimethyloxalylglycine]; settings: top dose 4000 µM; top dose inferred
Description: as §1

OSI-027 = compound: COc1cccc2cc(-c3nc([C@H]4CC[C@H](C(=O)O)CC4)n4ncnc(N)c34)[nH]c12 [OSI-027]; settings: top dose 20 µM
Description: as §1

VX-11e = compound: Cc1cnc(Nc2ccc(F)cc2Cl)nc1-c1c[nH]c(C(=O)N[C@H](CO)c2cccc(Cl)c2)c1 [VX-11e]; settings: top dose 5.12 µM; top dose inferred
Description: as §1

BIX02189 = compound: CN(C)Cc1cccc(N=C(c2ccccc2)c2c(O)[nH]c3cc(C(=O)N(C)C)ccc23)c1 [BIX02189]; settings: top dose 20 µM; top dose inferred
Description: as §1

Row | Cell Line | AUC (CCT018159) | IC50 (CCT018159) [µM] | AUC (TG101348) | IC50 (TG101348) [µM] | AUC (Doxorubicin) | IC50 (Doxorubicin) [µM] | AUC (Vismodegib) | IC50 (Vismodegib) [µM] | AUC (17-AAG) | IC50 (17-AAG) [µM] | AUC (UNC1215) | IC50 (UNC1215) [µM] | AUC (BMX-IN-1 (QL-XII-61)) | IC50 (BMX-IN-1 (QL-XII-61)) [µM] | AUC (Dimethyloxalylglycine) | IC50 (Dimethyloxalylglycine) [µM] | AUC (OSI-027) | IC50 (OSI-027) [µM] | AUC (VX-11e) | IC50 (VX-11e) [µM] | AUC (BIX02189) | IC50 (BIX02189) [µM]
1 | LAN-6 (neuroblastoma, adherent) | 0.978 | > 10 | 0.748 | 3.83 | 0.69 | 0.244 | 0.985 | > 10 | 0.951 | > 1 | 0.977 | > 1 | 0.984 | > 10 | 0.768 | 1770 | 0.85 | 19.8 | 0.934 | > 5.12 | 0.974 | > 20
2 | IST-MEL1 (melanoma, adherent) | 0.855 | > 10 | 0.877 | > 10.2 | 0.375 | 0.0269 | 0.97 | > 10 | 0.155 | 0.00416 | 0.976 | > 1 | 0.792 | 5.54 | 0.565 | 389 | 0.465 | 0.987 | 0.971 | > 5.12 | 0.951 | > 20
3 | no-11 (glioma, adherent) | 0.788 | 5.62 | 0.848 | > 10.2 | 0.749 | 0.407 | 0.983 | > 10 | 0.749 | 0.397 | 0.981 | > 1 | 0.976 | > 10 | 0.449 | 175 | 0.771 | 9.63 | 0.975 | > 5.12 | 0.956 | > 20
4 | VCaP (prostate, adherent) | 0.986 | > 10 | 0.637 | 1.56 | 0.682 | 0.211 | 0.987 | > 10 | 0.943 | > 1 | 0.985 | > 1 | 0.986 | > 10 | 0.875 | > 4000 | 0.543 | 1.64 | 0.987 | > 5.12 | 0.979 | > 20
5 | 8305C (thyroid, adherent) | 0.859 | > 10 | 0.835 | 9.87 | 0.537 | 0.083 | 0.951 | > 10 | 0.794 | 0.629 | 0.979 | > 1 | 0.967 | > 10 | 0.628 | 630 | 0.863 | > 20 | 0.942 | > 5.12 | 0.939 | > 20
6 | NCI-H1792 (lung adenocarcinoma, adherent) | 0.861 | 7.18 | 0.863 | 7.44 | 0.797 | 0.429 | 0.981 | > 10 | 0.552 | 0.0854 | 0.989 | > 1 | 0.988 | > 10 | 0.674 | 725 | 0.868 | 15.3 | 0.826 | 2.7 | 0.962 | > 20
7 | BL-41 (Burkitt lymphoma, suspension) | 0.874 | 6 | 0.589 | 1.06 | 0.596 | 0.11 | 0.937 | > 10 | 0.946 | > 1 | 0.991 | > 1 | 0.705 | 2 | 0.239 | 55.6 | 0.034 | < 0.0781 | 0.924 | 4.76 | 0.835 | 8.99
8 | NCI-H1781 (lung adenocarcinoma, adherent) | 0.95 | > 10 | 0.989 | > 10.2 | 0.433 | 0.042 | 0.989 | > 10 | 0.805 | 0.505 | 0.96 | > 1 | 0.971 | > 10 | 0.909 | > 4000 | 0.989 | > 20 | 0.911 | > 5.12 | 0.987 | > 20
9 | DND-41 (T-cell leukaemia, suspension) | 0.842 | 5.85 | 0.389 | 0.331 | 0.49 | 0.0603 | 0.961 | > 10 | 0.962 | > 1 | 0.987 | > 1 | 0.848 | 6.12 | 0.269 | 60.6 | 0.342 | 0.483 | 0.756 | 1.56 | 0.735 | 5.3
10 | NCI-H1437 (lung adenocarcinoma, adherent) | 0.843 | 7.55 | 0.805 | 5.41 | 0.512 | 0.069 | 0.975 | > 10 | 0.609 | 0.126 | 0.981 | > 1 | 0.985 | > 10 | 0.37 | 108 | 0.457 | 0.951 | 0.899 | > 5.12 | 0.983 | > 20
11 | L-428 (Hodgkin lymphoma, suspension) | 0.955 | > 10 | 0.896 | 9.9 | 0.807 | 0.451 | 0.991 | > 10 | 0.993 | > 1 | 0.99 | > 1 | 0.989 | > 10 | 0.671 | 700 | 0.55 | 1.69 | 0.993 | > 5.12 | 0.974 | > 20
12 | CAL-27 (head and neck, adherent) | 0.845 | 7.4 | 0.87 | 9.83 | 0.324 | 0.0205 | 0.899 | > 10 | 0.695 | 0.222 | 0.97 | > 1 | 0.963 | > 10 | 0.817 | 2290 | 0.774 | 7.98 | 0.945 | > 5.12 | 0.963 | > 20
13 | OE21 (oesophagus, adherent) | 0.815 | 8.33 | 0.911 | > 10.2 | 0.685 | 0.259 | 0.942 | > 10 | 0.532 | 0.0789 | 0.971 | > 1 | 0.963 | > 10 | 0.491 | 235 | 0.935 | > 20 | 0.961 | > 5.12 | 0.953 | > 20
14 | CHSA8926 (chondrosarcoma, adherent) | 0.973 | > 10 | 0.871 | > 10.2 | 0.768 | 0.549 | 0.98 | > 10 | 0.959 | > 1 | 0.971 | > 1 | 0.962 | > 10 | 0.964 | > 4000 | 0.921 | > 20 | 0.89 | > 5.12 | 0.852 | > 20
15 | GRANTA-519 (B-cell lymphoma, suspension) | 0.949 | > 10 | 0.903 | > 10.2 | 0.619 | 0.131 | 0.991 | > 10 | 0.981 | > 1 | 0.988 | > 1 | 0.892 | 9.73 | 0.549 | 335 | 0.248 | 0.258 | 0.991 | > 5.12 | 0.96 | > 20
16 | LOU-NH91 (lung squamous cell carcinoma, adherent) | 0.943 | > 10 | 0.794 | 5.18 | 0.929 | > 1.02 | 0.986 | > 10 | 0.462 | 0.0489 | 0.985 | > 1 | 0.985 | > 10 | 0.702 | 982 | 0.977 | > 20 | 0.985 | > 5.12 | 0.986 | > 20
17 | BHT-101 (thyroid, adherent) | 0.871 | 9.91 | 0.877 | > 10.2 | 0.76 | 0.371 | 0.876 | > 10 | 0.894 | > 1 | 0.973 | > 1 | 0.975 | > 10 | 0.788 | 1820 | 0.668 | 3.74 | 0.614 | 0.667 | 0.976 | > 20
18 | SK-MEL-1 (melanoma, suspension) | 0.991 | > 10 | 0.978 | > 10.2 | 0.963 | > 1.02 | 0.983 | > 10 | 0.918 | > 1 | 0.989 | > 1 | 0.993 | > 10 | 0.844 | 2310 | 0.849 | 12.1 | 0.922 | > 5.12 | 0.98 | > 20
19 | ES5 (Ewing sarcoma, adherent) | 0.9 | > 10 | 0.503 | 0.654 | 0.839 | 0.853 | 0.946 | > 10 | 0.895 | > 1 | 0.979 | > 1 | 0.946 | > 10 | 0.637 | 634 | 0.164 | 0.0967 | 0.914 | > 5.12 | 0.883 | > 20
20 | Becker (glioma, adherent) | 0.819 | 6.64 | 0.899 | > 10.2 | 0.79 |  | 0.962 | > 10 | 0.456 | 0.0467 | 0.982 | > 1 | 0.968 | > 10 | 0.511 | 270 | 0.511 | 1.35 | 0.948 | > 5.12 | 0.967 | > 20
21 | OVISE (ovary, adherent) | 0.967 | > 10 | 0.818 | 8.36 | 0.64 | 0.178 | 0.957 | > 10 | 0.981 | > 1 | 0.977 | > 1 | 0.977 | > 10 | 0.737 | 1520 | 0.442 | 0.826 | 0.956 | > 5.12 | 0.926 | > 20
22 | NCI-H1436 (small cell lung carcinoma, suspension) | 0.977 | > 10 | 0.892 | > 10.2 | 0.927 | > 1.02 | 0.984 | > 10 | 0.955 | > 1 | 0.944 | > 1 | 0.816 | 6.57 | 0.725 | 1210 | 0.682 | 4.36 | 0.985 | > 5.12 | 0.985 | > 20
23 | SK-MEL-30 (melanoma, adherent) | 0.942 | > 10 | 0.844 | 7.95 | 0.41 | 0.0359 | 0.975 | > 10 | 0.848 | 0.808 | 0.984 | > 1 | 0.984 | > 10 | 0.619 | 541 | 0.547 | 1.69 | 0.657 | 0.895 | 0.96 | > 20
